A lower IC50 marks a more sensitive line; a fit beyond the top or the lowest dose is shown as a bound at that dose. AUC, from the same fit, is the share of area under the viability curve across the 256-fold dose range; values near 1 show little effect. For some of these results: Any top dose called inferred is not printed in the source and was worked back from the curve model.
Tests used:
Experiment in all cases: Viability of human cancer cell lines after 72 h of drug (GDSC screen)
Trametinib = compound: CC(=O)Nc1cccc(-n2c(=O)n(C3CC3)c(=O)c3c(Nc4ccc(I)cc4F)n(C)c(=O)c(C)c32)c1 [Trametinib]; settings: top dose 1 µM
Method: (§1)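 Human cancer cell lines in 384-well plates, medium with 10% serum, drug for 72 h over a 256-fold dose range (nine 2-fold or five 4-fold steps up to the top dose). Adherent lines were fixed and stained with the nucleic acid dye Syto60, suspension lines read with resazurin; signal relative to control wells, capped at 0 and 100%. One two-parameter sigmoid per drug and line, fitted in a mixed model over all curves with the slope shared within a line.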

PF-4708671 = compound: CCc1cncnc1N1CCN(Cc2nc3ccc(C(F)(F)F)cc3[nH]2)CC1 [PF-4708671]; settings: top dose 10 µM; top dose inferred
Method: as §1

HG-6-64-1 = compound: CCN1CCN(Cc2ccc(NC(=O)c3ccc(C)c(/C=C/c4cnc5[nH]ccc5c4OC)c3)cc2C(F)(F)F)CC1 [HG-6-64-1]; settings: top dose 5.12 µM; top dose inferred
Method: as §1

I-BET-762 = compound: CCNC(=O)C[C@@H]1N=C(c2ccc(Cl)cc2)c2cc(OC)ccc2-n2c(C)nnc21 [I-BET-762]; settings: top dose 20 µM; top dose inferred
Method: as §1

MS-275 = compound: Nc1ccccc1NC(=O)c1ccc(CNC(=O)OCc2cccnc2)cc1 [MS-275]; settings: top dose 5 µM; top dose inferred
Method: as §1

KIN001-244 = compound: O=C(NC(COc1ccc2[nH]c(=O)[nH]c2c1)c1ccccc1)c1cccn(Cc2ccc(F)c(F)c2)c1=O [KIN001-244]; settings: top dose 20 µM; top dose inferred
Method: as §1

AV-951 = compound: COc1cc2nccc(Oc3ccc(NC(=O)Nc4cc(C)on4)c(Cl)c3)c2cc1OC [AV-951]; settings: top dose 0.128 µM; top dose inferred
Method: as §1

Cell Line | AUC (Trametinib) | IC50 (Trametinib) [µM] | AUC (PF-4708671) | IC50 (PF-4708671) [µM] | AUC (HG-6-64-1) | IC50 (HG-6-64-1) [µM] | AUC (I-BET-762) | IC50 (I-BET-762) [µM] | AUC (MS-275) | IC50 (MS-275) [µM] | AUC (KIN001-244) | IC50 (KIN001-244) [µM] | AUC (AV-951) | IC50 (AV-951) [µM]
NCI-H1838 (lung adenocarcinoma, adherent) | 0.892 | > 1 | 0.982 | > 10 | 0.961 | > 5.12 | 0.978 | > 20 | 0.982 | > 5 | 0.948 | > 20 | 0.986 | > 0.128
NCI-H1869 (lung squamous cell carcinoma, adherent) | 0.668 | 0.195 | 0.977 | > 10 | 0.879 | > 5.12 | 0.96 | > 20 | 0.797 | 2.72 | 0.881 | > 20 | 0.985 | > 0.128
NCI-H1876 (small cell lung carcinoma, adherent) | 0.978 | > 1 | 0.912 | > 10 | 0.987 | > 5.12 | 0.879 | > 20 | 0.668 | 0.923 | 0.939 | > 20 | 0.987 | > 0.128
NCI-H1975 (lung adenocarcinoma, adherent) | 0.382 | 0.0281 | 0.968 | > 10 | 0.526 | 0.381 | 0.845 | 17.7 | 0.377 | 0.136 | 0.917 | > 20 | 0.975 | > 0.128
NCI-H2081 (small cell lung carcinoma, suspension) | 0.985 | > 1 | 0.931 | > 10 | 0.965 | > 5.12 | 0.978 | > 20 | 0.919 | > 5 | 0.93 | > 20 | 0.989 | > 0.128
NCI-H2135 (non-small cell lung carcinoma, adherent) | 0.99 | > 1 | 0.863 | 8.24 | 0.948 | > 5.12 | 0.589 | 2.17 | 0.842 | 3.35 | 0.783 | 8.13 | 0.99 | > 0.128
NCI-H2141 (small cell lung carcinoma, suspension) | 0.99 | > 1 | 0.988 | > 10 | 0.985 | > 5.12 | 0.955 | > 20 | 0.856 | 3.85 | 0.946 | > 20 | 0.986 | > 0.128
NCI-H2227 (small cell lung carcinoma, semi-adherent) | 0.906 | > 1 | 0.985 | > 10 | 0.97 | > 5.12 | 0.604 | 2.52 | 0.823 | 3.48 | 0.865 | > 20 | 0.978 | > 0.128
